Reference: the RNAGym collection of RNA variant scans (doi:10.1073/pnas.2313332121)
Variants at the background level are over-represented here.

B1: TPR 5TU (parent)
chain: GGAUCUUCUCGAUCUAACAAAAAAGACAAAUCUGCCACAAAGCUUGAGAGCAUCUUCGGAUGCAGAGGCGGCAGCCUUCGGUGGCGCGAUAGCGCCAACGUUCUCAACUAUGACACGCAAAACGCGUGCUCCGUUGAAUGGAGUUUAUCAUG

Variants of: B1
Test: polymerase ribozyme fitness, log enrichment relative to wild type (log ratio); higher = more active; in vitro selection for triplet polymerase activity
Method in brief: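 Streptavidin-bead capture of gel-excised extended constructs, followed by RT-PCR, closed a single triplicate in vitro selection round. That round began by annealing PCR-built, transcribed mutant libraries of each subunit of a heterodimeric triplet polymerase ribozyme with a biotinylated primer, the partner subunit and triplets, then incubating them frozen at −7 °C. After Illumina sequencing of inputs and outputs, genotypes needed ≥10 input reads and ≥1 read per output. Fitness is the base-2 logarithm of genotype enrichment over wild-type enrichment, using inverse-variance-weighted replicate averages.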

Variant	polymerase ribozyme fitness (log ratio)
GGAUCUUCUCGAUCUAACAAAAAAGACAAAUCUGCCACAAAGCUUGAGAGCAUCUUCCGAUGCAGAGGCGGAAGCCUUCGGUGGCGCGAUAGCGCCAACGUUCUCAACUCUGACACGCAAAACGCGUGCUCCGUUGAAUGGAGUUUGUCCUG [G58C C72A A110C A147G A150C]	≤ -4.2
GGAUCUUCUCGAUCUAACAAAAAAGACAAAUCUGCCACAAAGCUUGAGAGCAUCUUCCGAUGCAGAGGCGGCAGCAUUCGGUUGCGCGAUAGCGCCAACGUUCUCAACUAUGACACGCAAAACGCGUGCUCCGUUGAAUGGAGUUUAUCAUG [G58C C76A G83U]	-2.66
GGAUCUUCUCGAUCUAACAAAAAAGACAAAUCUGCCACAAAGCUUGAGAGCAUCUUCCGAUGCAGAGGCGGCAGCGUUCGGUGGCGCGAUACCGCCAACGUUCUCAACUAUGACACGCAAAACGCGUGCUCCGUUGAAUGGAGUUUAUCAUG [G58C C76G G92C]	≤ -4.2
GGAUCUUCUCGAUCUAACAAAAAAGACAAAUCUGCCACAAAGCUUGAGAGCAUCUUCCGAUGCAGAGGCGGCAGCGGUCGGUGGCGCGAUAGCGCCAACGUUCUCAACUAUGACACGCAAAACGCGUGCUCCGUUGAAUGGAGUUUAUCAUG [G58C C76G U77G]	≤ -4.2
GGAUCUUCUCGAUCUAACAAAAAAGACAAAUCUGCCACAAAGCUUGAGAGCAUCUUCCGAUGCAGAGGCGGCAGCCUUUGGUGGCGCGAUAGCGCCAACGUUCUCAACUAUGACACGCAAAACGCGUGCUCCGGUGAAUGGAGUUUAUCAUG [G58C C79U U134G]	≤ -4.2
GGAUCUUCUCGAUCUAACAAAAAAGACAAAUCUGCCACAAAGCUUGAGAGCAUCUUCCGAUGCAGAGGCGGCAGCCUUCGGUGGGGCGAAAGCGCCAACGUUCUCAACUAUGACACGCAAAACGCGUGCUCCGUUGAAAUGAGUUUAUCAUG [G58C C85G U90A U139A G140U]	≤ -4.2
GGAUCUUCUCGAUCUAACAAAAAAGACAAAUCUGCCACAAAGCUUGAGAGCAUCUUCCGAUGCAGAGGCGGCAGCCUUCGGUGGUGCGAUAGCGCCAACGUUCUCAACUAUGACACUCAAAACGCGUGCUCCGUUGAAUGGAGUUUAUCAUG [G58C C85U G117U]	-0.00983
GGAUCUUCUCGAUCUAACAAAAAAGACAAAUCUGCCACAAAGCUUGAGAGCAUCUUCCGAUGCAGAGGCGGCAGCCUUCGGUGGCGAGAUAGCGCCAACGUUCGCAACUAUGACGCGCAAAACGCGUGCUCCGUUGAAUGGAGUUUAUCAUG [G58C C87A U104G A115G]	≤ -4.2
GGAUCUUCUCGAUCUAACAAAAAAGACAAAUCUGCCACAAAGCUUGAGAGCAUCUUCCGAUGCAGAGGCGGCAGCCUUCGGUGGCGCGAUAGCGUCAACGUUCUCAACUAUGACACGCAAAACGCGUGCUCCGUUGAAUGGAGUUUAUCAUG [G58C C95U]	-0.651
GGAUCUUCUCGAUCUAACAAAAAAGACAAAUCUGCCACAAAGCUUGAGAGCAUCUUCCGAUGCAGAGGCGGCAGCCUUCGGUGGCGCGAUAGCGUCAACGUUCUCAACUAUGACACGCAAAACGCGUGCUCCGUUGAAUGGAGUUUAUCCUG [G58C C95U A150C]	-3.72
GGAUCUUCUCGAUCUAACAAAAAAGACAAAUCUGCCACAAAGCUUGAGAGCAUCUUCCCAUGCAGAGACGGCAGCCCUCGGUGGCGAGAUAGCGCCAACGUUCUCAACUAUGACACGCAAAACGCGUGCUCCGUUGAAUGGACUUUAUCAUG [G58C G59C G68A U77C C87A G143C]	≤ -4.2
GGAUCUUCUCGAUCUAACAAAAAAGACAAAUCUGCCACAAAGCUUGAGAGCAUCUUCCGAUGCAGAGGCGACAGCCUUCGGUGGCGCGAUAGCGCCAACGUUCUCAACUAUGACACGCAAAACGCGUGCUCCAUUGAAUGGAGUUUAGCAUG [G58C G71A G133A U148G]	≤ -4.2
GGAUCUUCUCGAUCUAACAAAAAAGACAAAUCUGCCACAAAGCUUGAGAGCAUCUUCCGAUGCAGAGGCGGCAGCCUUCAGUGUCGCGAUAGCGCCAACGUUCUCAACUAUGACACGCACAACGCGUGCUCCGUUGAAUGGAGUUUAUCAUC [G58C G80A G84U A120C G152C]	≤ -4.2
GGAUCUUCUCGAUCUAACAAAAAAGACAAAUCUGCCACAAAGCUUGAGAGCAUCUUCCGAUGCAGAGGCGGCAGCCUUCGGUAGCGCGAUAGUGCCAACGUUCUCAACUAUGACACGCAAAACGCGUGCUCCGUUGAAUGGAGUUUAUCAUG [G58C G83A C93U]	-2.03
GGAUCUUCUCGAUCUAACAAAAAAGACAAAUCUGCCACAAAGCUUGAGAGCAUCUUCCGAUGCAGAGGCGGCAGCCUUCGGUAGCGCGAUAGCGCCAACGUUCUCAACUAUGACAUGCAAAACGCGUGCUCCGUUGAAUGGAGUUUAACAUG [G58C G83A C116U U148A]	≤ -4.2
GGAUCUUCUCGAUCUAACAAAAAAGACAAAUCUGCCACAAAGCUUGAGAGCAUCUUCCGAUGCAGAGGCGGCAGCCUUCGGUGGCUCUAUAGCGCCAACGUUCUCAACAAUGACACGCAAAACGCGUGCUCCGUUGAAUGGAGUUUAUCAUG [G58C G86U G88U U109A]	≤ -4.2
GGAUCUUCUCGAUCUAACAAAAAAGACAAAUCUGCCACAAAGCUUGAGAGCAUCUUCCGAUGCAGAGGCGGCAGCCUUCGGUGGCGCAAUAGCGCAAACGUUCUCAACUAUGACACGCAAAACGCGUGCUCCGUUGAAUGGAUUUUAUCAUG [G58C G88A C96A G143U]	≤ -4.2
GGAUCUUCUCGAUCUAACAAAAAAGACAAAUCUGCCACAAAGCUUGAGAGCAUCUUCCGAUGCAGAGGCGGCAGCCUUCGGAGGCGCGAUAGCGACAACGUUCUCAACUAUGACAUGCAAAACGCGUGCUGCGUUGAAUGGAGUUUAUCAUG [G58C U82A C95A C116U C131G]	≤ -4.2
GGAUCUUCUCGAUCUAACAAAAAAGACAAAUCUGCCACAAAGCUUGAGAGCAUCUUCUGGUGCAGAGGCGGCAGCCUUCGGUGGCGCGAUAGCGCCAACGUUCUCAACUAUGACACGCAAAACGCGUGCUCCGUUGAAUGGAGUUUAUCAUG [G58U A60G]	0.208
